# This is one part of the list.
# How the values were obtained:
# Assay in all cases: glycan array binding signal (z-score within array); higher = stronger binding
# Details in all cases: glycan notation: IUPAC condensed, linker removed
# [1] = biological target: Gal3S(b1-3)[Fuc(a1-4)]GlcNAc(b1-3)Gal(b1-4)Glc
# Method in brief: (§1)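 Columns mapping to the same glycan were averaged after glycan names were converted to IUPAC-condensed notation. The data come from 3228 arrays in the Consortium for Functional Glycomics database, limited to those with an available protein sequence. Binding is reported as a within-array Z-score averaged across arrays of one protein sequence and across linkers.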
# [2] = biological target: Gal3S(b1-4)Glc
# Method in brief: as §1
# [3] = biological target: Gal3S(b1-4)GlcNAc
# Method in brief: as §1
# [4] = biological target: Gal3S(b1-4)GlcNAc(b1-3)Gal
# Method in brief: as §1
# [5] = biological target: Gal6S(b1-3)[Fuc(a1-4)]GlcNAc(b1-3)Gal(b1-4)Glc
# Method in brief: as §1
# [6] = biological target: GalNAc(a1-3)Gal(b1-4)Glc
# Method in brief: as §1
# [7] = biological target: GalNAc(a1-3)GalNAc
# Method in brief: as §1
# [8] = biological target: GalNAc(b1-4)Gal(b1-4)Glc
# Method in brief: as §1
# [9] = biological target: GalNAc(b1-4)Gal3S(b1-4)Glc
# Method in brief: as §1
# [10] = biological target: GalNAc(b1-4)[Neu5Ac(a2-6)]Gal(b1-4)Glc
# Method in brief: as §1
# [11] = biological target: GalNAc3S(b1-4)Gal3S(b1-4)Glc
# Method in brief: as §1
# [12] = biological target: Glc(a1-2)Glc
# Method in brief: as §1
# [13] = biological target: Glc(a1-2)Glc(a1-3)Glc(a1-3)Man(a1-2)Man(a1-2)Man(a1-3)[Man(a1-2)Man(a1-3)[Man(a1-2)Man(a1-6)]Man(a1-6)]Man(b1-4)GlcNAc
# Method in brief: as §1
# [14] = biological target: Glc(a1-2)Glc(a1-3)Glc(a1-3)Man(a1-2)Man(a1-2)Man(a1-3)[Man(a1-3)[Man(a1-6)]Man(a1-6)]Man(b1-4)GlcNAc
# Method in brief: as §1
# [15] = biological target: Glc(a1-3)Glc
# Method in brief: as §1
# [16] = biological target: Glc(a1-3)Glc(a1-3)Man(a1-2)Man(a1-2)Man(a1-3)[Man(a1-2)Man(a1-3)[Man(a1-2)Man(a1-6)]Man(a1-6)]Man(b1-4)GlcNAc(b1-4)GlcNAc
# Method in brief: as §1
# [17] = biological target: Glc(a1-3)Glc(a1-3)Man(a1-2)Man(a1-2)Man(a1-3)[Man(a1-3)[Man(a1-6)]Man(a1-6)]Man(b1-4)GlcNAc
# Method in brief: as §1
# [18] = biological target: Glc(a1-3)Man(a1-2)Man(a1-2)Man(a1-3)[Man(a1-2)Man(a1-3)[Man(a1-2)Man(a1-6)]Man(a1-6)]Man(b1-4)GlcNAc(b1-4)GlcNAc
# Method in brief: as §1
# [19] = biological target: Glc(a1-4)Glc
# Method in brief: as §1
# [20] = biological target: Glc(a1-4)Glc(a1-4)Glc
# Method in brief: as §1
# [21] = biological target: Glc(a1-4)Glc(a1-4)Glc(a1-4)Glc
# Method in brief: as §1
# [22] = biological target: Glc(a1-4)Glc(a1-4)Glc(a1-4)Glc(a1-4)Glc
# Method in brief: as §1
# [23] = biological target: Glc(a1-4)Glc(a1-4)Glc(a1-4)Glc(a1-4)Glc(a1-4)Glc
# Method in brief: as §1
# [24] = biological target: Glc(a1-4)Glc(a1-4)Glc(a1-4)Glc(a1-4)Glc(a1-4)Glc(a1-4)Glc
# Method in brief: as §1
# [25] = biological target: Glc(a1-4)Glc(a1-4)Glc(a1-4)Glc(a1-4)Glc(a1-4)Glc(a1-4)Glc(a1-4)Glc
# Method in brief: as §1
# [26] = biological target: Glc(a1-4)Glc(a1-4)Glc(a1-4)Glc(a1-4)Glc(a1-4)Glc(a1-4)Glc(a1-4)Glc(a1-4)Glc
# Method in brief: as §1
# [27] = biological target: Glc(a1-4)Glc(a1-4)Glc(a1-4)Glc(a1-4)Glc(a1-4)Glc(a1-4)Glc(a1-4)Glc(a1-4)Glc(a1-4)Glc
# Method in brief: as §1
# [28] = biological target: Glc(a1-4)Glc(a1-4)Glc(a1-4)Glc(a1-4)Glc(a1-4)Glc(a1-4)Glc(a1-4)Glc(a1-4)Glc(a1-4)Glc(a1-4)Glc
# Method in brief: as §1
# [29] = biological target: Glc(a1-4)Glc(a1-4)Glc(a1-4)Glc(a1-4)Glc(a1-4)Glc(a1-4)Glc(a1-4)Glc(a1-4)Glc(a1-4)Glc(a1-4)Glc(a1-4)Glc
# Method in brief: as §1
# [30] = biological target: Glc(a1-4)Glc(a1-4)Glc(a1-4)Glc(a1-4)Glc(a1-4)Glc(a1-4)Glc(a1-4)Glc(a1-4)Glc(a1-4)Glc(a1-4)Glc(a1-4)Glc(a1-4)Glc
# Method in brief: as §1
# [31] = biological target: Glc(a1-6)Glc
# Method in brief: as §1
# [32] = biological target: Glc(a1-6)Glc(a1-4)Glc(a1-4)Glc
# Method in brief: as §1
# [33] = biological target: Glc(a1-6)Glc(a1-6)Glc
# Method in brief: as §1
# [34] = biological target: Glc(a1-6)Glc(a1-6)Glc(a1-6)Glc
# Method in brief: as §1
# [35] = biological target: Glc(a1-6)Glc(a1-6)Glc(a1-6)Glc(a1-6)Glc
# Method in brief: as §1
# [36] = biological target: Glc(a1-6)Glc(a1-6)Glc(a1-6)Glc(a1-6)Glc(a1-6)Glc
# Method in brief: as §1
# [37] = biological target: Glc(a1-6)Glc(a1-6)Glc(a1-6)Glc(a1-6)Glc(a1-6)Glc(a1-6)Glc
# Method in brief: as §1
# [38] = biological target: Glc(a1-6)Glc(a1-6)Glc(a1-6)Glc(a1-6)Glc(a1-6)Glc(a1-6)Glc(a1-6)Glc
# Method in brief: as §1
# [39] = biological target: Glc(a1-6)Glc(a1-6)Glc(a1-6)Glc(a1-6)Glc(a1-6)Glc(a1-6)Glc(a1-6)Glc(a1-6)Glc
# Method in brief: as §1
# [40] = biological target: Glc(a1-6)Glc(a1-6)Glc(a1-6)Glc(a1-6)Glc(a1-6)Glc(a1-6)Glc(a1-6)Glc(a1-6)Glc(a1-6)Glc
# Method in brief: as §1
# [41] = biological target: Glc(a1-6)Glc(a1-6)Glc(a1-6)Glc(a1-6)Glc(a1-6)Glc(a1-6)Glc(a1-6)Glc(a1-6)Glc(a1-6)Glc(a1-6)Glc
# Method in brief: as §1
# [42] = biological target: Glc(a1-6)Glc(a1-6)Glc(a1-6)Glc(a1-6)Glc(a1-6)Glc(a1-6)Glc(a1-6)Glc(a1-6)Glc(a1-6)Glc(a1-6)Glc(a1-6)Glc
# Method in brief: as §1
# [43] = biological target: Glc(a1-6)Glc(a1-6)Glc(a1-6)Glc(a1-6)Glc(a1-6)Glc(a1-6)Glc(a1-6)Glc(a1-6)Glc(a1-6)Glc(a1-6)Glc(a1-6)Glc(a1-6)Glc
# Method in brief: as §1
# [44] = biological target: Glc(b1-2)Glc
# Method in brief: as §1
# [45] = biological target: Glc(b1-3)Glc
# Method in brief: as §1
binder,measurement,setting,value
"ZG16p (Homo sapiens), O60844 (protein) ARSSSYSGEYGGGGGKRFSHSGNQLDGPITALRVRVNTYYIVGLQVRYGKVWSDYVGGRNGDLEEIFLHPGESVIQVSGKYKWYLKKLLFVTDKGRYLSFGKDSGTSFNAVPLHPNTVLRFISGRSGSLIDAIGLHWDVYPSSCSRC",glycan array binding signal (z-score),[1],-0.328
same,glycan array binding signal (z-score),[2],-0.328
same,glycan array binding signal (z-score),[3],-0.296
same,glycan array binding signal (z-score),[4],-0.195
same,glycan array binding signal (z-score),[5],-0.328
same,glycan array binding signal (z-score),[6],-0.328
same,glycan array binding signal (z-score),[7],-0.283
same,glycan array binding signal (z-score),[8],-0.21
same,glycan array binding signal (z-score),[9],-0.328
same,glycan array binding signal (z-score),[10],-0.328
same,glycan array binding signal (z-score),[11],-0.314
same,glycan array binding signal (z-score),[12],1.24
same,glycan array binding signal (z-score),[13],-0.512
same,glycan array binding signal (z-score),[14],0.627
same,glycan array binding signal (z-score),[15],2.88
same,glycan array binding signal (z-score),[16],0.445
same,glycan array binding signal (z-score),[17],0.643
same,glycan array binding signal (z-score),[18],-0.195
same,glycan array binding signal (z-score),[19],0.71
same,glycan array binding signal (z-score),[20],0.576
same,glycan array binding signal (z-score),[21],0.465
same,glycan array binding signal (z-score),[22],0.64
same,glycan array binding signal (z-score),[23],1.47
same,glycan array binding signal (z-score),[24],1.55
same,glycan array binding signal (z-score),[25],1.93
same,glycan array binding signal (z-score),[26],1.78
same,glycan array binding signal (z-score),[27],1.95
same,glycan array binding signal (z-score),[28],0.999
same,glycan array binding signal (z-score),[29],4.4
same,glycan array binding signal (z-score),[30],2.82
same,glycan array binding signal (z-score),[31],1.29
same,glycan array binding signal (z-score),[32],-0.027
same,glycan array binding signal (z-score),[33],0.475
same,glycan array binding signal (z-score),[34],0.435
same,glycan array binding signal (z-score),[35],0.189
same,glycan array binding signal (z-score),[36],-0.061
same,glycan array binding signal (z-score),[37],-0.184
same,glycan array binding signal (z-score),[38],-0.142
same,glycan array binding signal (z-score),[39],-0.055
same,glycan array binding signal (z-score),[40],0.078
same,glycan array binding signal (z-score),[41],0.337
same,glycan array binding signal (z-score),[42],-0.065
same,glycan array binding signal (z-score),[43],-0.118
same,glycan array binding signal (z-score),[44],-0.052
same,glycan array binding signal (z-score),[45],0.748

# — the supplement of paper PMC8728848
